PubChem BioAssay AID1240 (Sanford-Burnham Center for Chemical Genomics, 2008)
Screen size: about 50,000 compounds; about 800 (1.6%) showed an effect of 50% or more. The list shows a part of the results.

Biological target: Bcl-2-like protein 10 (Homo sapiens) (UniProt Q9HD36)
Assay: Phenotype converters, Bcl-B/TR3 peptide binding displacement, primary biochemical FP (AID 1240);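 also: 0% = Bcl-B with tracer peptide and DMSO and 100% = tracer peptide lacking Bcl-B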
Conditions: GST-Bcl-B / FITC-TR3 peptide fluorescence polarization; stronger effect = higher value; compound at 3.75 mg/L

UniProt Q9HD36, sequence (Q9HD36 whole entry, looked up): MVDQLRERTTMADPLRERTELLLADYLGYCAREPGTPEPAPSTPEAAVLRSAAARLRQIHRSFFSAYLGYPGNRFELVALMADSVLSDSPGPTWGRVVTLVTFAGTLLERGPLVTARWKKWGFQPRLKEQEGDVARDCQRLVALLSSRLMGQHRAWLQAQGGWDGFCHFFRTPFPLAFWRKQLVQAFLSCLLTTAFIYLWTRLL

SMILES	displacement [%]
Cc1ccc(OCC(=O)Nc2cccc(Cl)c2C)c(Br)c1	-7
O=C(NCc1ccccc1)c1nn2c(c1Br)NC(c1cccs1)CC2C(F)(F)F (stereo unspecified)	-1.2
NC(=O)c1c(NC(=O)c2ccccc2F)sc2c1CCC2	4.4
CC(=O)c1ccc(NC(=S)NC(NC(=O)c2ccccc2Cl)C(Cl)(Cl)Cl)cc1 (stereo unspecified)	-3.8
CCOC(=O)c1c(NC=O)sc2c1CCC/C2=N\O	148
O=C(O)CC(NC(=O)c1ccc(Cl)cc1)c1ccccc1 (stereo unspecified)	9
O=C(CSc1ccccn1)Nc1ccc(F)cc1	-11.4
Nc1c(NCCN2CCCC2)c2ccccc2oc1=O	-3.6
Cc1cc(C)cc(NC2=C(Cl)C(=O)N(c3cccc(Cl)c3)C2=O)c1	7
c1ccc(CCCN2CCN(Cc3ccncc3)CC2)cc1	-9.7
CC(C)(C)C(=O)/C=C(N)\C=C\c1ccccc1	8.9
CC(C)(C)c1cc(C(=O)N/N=C/c2ccc(Br)cc2)n[nH]1	-2
O=C1OC(c2ccc(Cl)cc2)=C/C1=C/c1ccc(-c2ccccc2[N+](=O)[O-])o1	-34
O=C(CSc1nc2ccccc2s1)OCC(=O)c1cccc([N+](=O)[O-])c1	-14.1
COC(=O)c1ccc(NC(=O)CC(c2ccccc2)c2ccccc2)cc1	-0.2
O=C(O)Cc1ccc(OCCCCOc2ccc(CC(=O)O)cc2)cc1	-8.4
Cc1ccccc1N=Cc1c(O)n(-c2ccccc2Cl)c(=O)[nH]c1=O	-8.2
Cc1ccnc(NC(=O)c2cc3ccccc3o2)c1	-0.4
CCc1ccc(C(=O)CC2(O)C(=O)Nc3ccccc32)cc1 (stereo unspecified)	12.9
O=C(Cc1cccc2ccccc12)NCc1ccco1	12.2
O=C1/C(=C\c2ccc(-c3ccc([N+](=O)[O-])cc3Br)o2)Sc2ccccc21	-17.8
O=C(/C=C/c1ccccc1)NC(CCC(=O)OCc1ccccc1)C(=O)OCc1ccccc1 (stereo unspecified)	8.2
Cc1cc2oc(=O)cc(C)c2cc1[N+](=O)[O-]	12.4

SMILES	displacement [%]
CCC(C(=O)N1CCc2ccccc21)c1ccccc1 (stereo unspecified)	11.1
COc1ccc(NC(=O)COc2cccc3ccccc23)cc1	13.5
CC/C(=C/C(=O)c1ccncc1)Nc1cccc(O)c1	6.6
c1ccc2c3c([nH]c2c1)/C(=N/N=C1CCCCC1)CCC3	-14.4
COc1ccc2c(oc(=O)c3ccccc32)c1C	9.8
Cc1cccc(-c2nnc(NC(=O)Nc3ccccc3)s2)c1	11.9
O=C(Nc1cccnc1)c1ccc(-c2ccc(Cl)cc2)o1	17.7
CCC1CCc2c(sc(NC(=O)c3ccc4c(c3)OCO4)c2C(=O)OC)C1 (stereo unspecified)	-12.3
CC(=O)Oc1cccc2ccc(=O)[nH]c12	11.4
COc1cccc(C2C(C(C)=O)=C(O)C(=O)N2c2nc3ccccc3s2)c1 (stereo unspecified)	7.7
CCOc1ccc(C2/C(=C(\O)c3ccc(Cl)cc3)C(=O)C(=O)N2c2cccnc2)cc1 (stereo unspecified)	-8.7
COc1ccc(S(=O)(=O)N/N=C/c2cc3c(cc2Cl)OCO3)cc1	-7.7
CCCOC(=O)C1=C(C)NC2=C(C(=O)CC(c3ccc(OC)cc3)C2)C1c1ccc(OCc2ccccc2)c(OC)c1 (stereo unspecified)	2.2
CCN(CC)CCCN1C(=O)C(C)SC1c1ccccc1[N+](=O)[O-] (stereo unspecified)	1.6
CCCCOc1ccc(S(=O)(=O)n2nc(C)cc2C)cc1	2.3
Cc1ccc(C(=O)N(Cc2ccccc2)Cc2ccccc2)cc1[N+](=O)[O-]	10.5
CC(=O)Nc1ccc(N2C(=O)c3cc4ccccc4cc3C2=O)cc1	-12.4
CCOC(=O)Cn1nc(C(F)(F)F)c(Cl)c1C	9.1
COc1ccccc1N1CCN(C(=O)c2ccc(N(Cc3ccccc3)S(C)(=O)=O)cc2)CC1	-0.6
O=C(/C=C/c1cccs1)Nc1ncc(Cc2cccc(C(F)(F)F)c2)s1	-9.8
COc1cc(NC(=O)C(F)(F)F)c(Cl)cc1NC(=O)c1ccccc1	2.9
C/C(=N\N=C1\NC(=O)C(CC(=O)Nc2ccc([N+](=O)[O-])cc2)S1)c1ccc(F)cc1 (stereo unspecified)	10.1
O=C(O)CCCC(=O)OCc1ccco1	31.3

SMILES	displacement [%]
Cc1c(N/C(=N\S(=O)(=O)c2ccccc2)c2ccccc2)c(=O)n(-c2ccccc2)n1C	6.8
CCOc1cc(/C=C(\C#N)c2nc3ccc(C)cc3[nH]2)cc(I)c1O	-95.2
COc1cc(OC)c(/C=C2/C(C)=C(C#N)c3nc(N)c(C#N)c(C)c32)cc1Br	7.1
Cc1cc2ncn(C(=O)c3ccc([N+](=O)[O-])cc3)c2cc1C	13.2
COc1ccc(N)cc1-n1c(C)ccc1C	42.5
c1ccc(CN2CCC(N3CCN(C4CCCCCC4)CC3)CC2)cc1	-4.8
O=C(COc1ccc2ccccc2c1)Nc1cc([N+](=O)[O-])ccc1F	29.5
Cc1oc(C(=O)O)cc1CSCc1oc(-c2ccccc2)cc1C(=O)O	-5.6
Cc1ccc(OCC(=O)N/N=C\c2cccnc2)cc1	5
Cc1ccc(S(=O)(=O)/N=C(/Nc2cccc([N+](=O)[O-])c2)c2ccccc2)cc1	14.7
COc1ccccc1-c1coc2c(CN(CC(C)C)CC(C)C)c(O)ccc2c1=O	-7.7
Cc1nc2sc3c(c2c2nncn12)CCCC3	3.8
CC(=C/C(=O)O)/C=C/c1c[nH]c2ccccc12	3.2
C/C(=C\C(=O)ONC(=O)c1ccccc1)NC(C)C	-12.8
NC(=O)c1c(NC(=O)C2C3C=CC(C3)C2C(=O)O)sc2c1CCCCC2 (stereo unspecified)	-6.8
COc1ccc2c(c1)c(C(C)=O)c(C)n2C	9.8
COc1ccc(C2(CNC(=O)c3ccccc3)CCCC2)cc1OC	5.2
CC(=O)C12CCCCC1CC1C3CC(C)[C@@]4(O)CC(O)CCC4(C)C3CCC12C (stereo partly specified)	0
O=C(Nc1cccc(Cl)c1)Nc1ccc(Br)cn1	-1
Cc1ccc(S(=O)(=O)N2CCN(C/C=C/c3ccccc3)CC2)cc1[N+](=O)[O-]	-10
COc1cc(OC)c(OC)cc1CN1CCN(Cc2cc(OC)c(O)c(OC)c2)CC1	-3.8
Cc1ccc2[nH]c(O)c(N=NC(=O)COc3ccccc3)c2c1Br	16.5
NC1=NC(=O)/C(=C\c2ccc(S(=O)(=O)O)cc2)S1	12.8

SMILES	displacement [%]
Cc1ccc(C2C3=C(Nc4c2c(=O)[nH]c(=O)n4C)c2ccccc2C3=O)cc1 (stereo unspecified)	-2.2
CC1(C)CC(C(CC(=O)O)Cc2ccccc2)CCO1 (stereo unspecified)	-4.6
Cc1ccc(-n2nc3cc(C)c(NC(=O)c4ccc(Cl)cc4Cl)cc3n2)cc1	-6.9
O=C(CCc1ccccc1)Nc1ccc(Cl)c(C(F)(F)F)c1	-11.7
O=C(c1ccc(Cl)cc1)c1ccccc1C(=O)n1nnc2ccccc21	10.3
Cc1ccc(C)c(N(CC(=O)NCc2ccc(Cl)cc2)S(=O)(=O)c2ccccc2)c1	-7.7
CCOC(=O)N/N=C/c1ccccc1F	9.5
CCCc1c(C)[nH]c2c(OC)cccc2c1=O	10.4
COc1ccccc1CC1CC(=O)N(c2ccc(I)cc2)C1=O (stereo unspecified)	6.3
O=C(Nc1ccc(Br)cc1)NC(c1ccccc1)c1ccccc1	-14.3
COC(=O)C1=CN(Cc2ccc(F)cc2)C=C(C(=O)OC)C1c1cc(OC)c(OC)c(OC)c1	4.7
COc1cc(OC)c(C=Nc2ccccc2C(=O)Nc2ccccc2)cc1Br	-6
CCN(CC)CCSc1nc(O)c(C(C)C)c(=O)n1-c1ccccc1	5.3
O=C(CSCc1cccc(Br)c1)NCc1ccccc1	2.2
CCCCS(=O)(=O)CC(O)COc1ccc(Cl)cc1 (stereo unspecified)	-11.6
Nc1cc(=O)[nH]c(SCc2ccccc2)n1	1
COc1cc2c(cc1OC)C1(CCOCC1)CN(C)C2	-0.3
O=C(c1cc(F)c(F)cc1Cl)N1CCN(c2ccc([N+](=O)[O-])cc2Cl)CC1	14.1
COc1ccc(N(CC(=O)Nc2ccc(OC)c(OC)c2)S(C)(=O)=O)cc1	2.4
CCOC(=O)C1=C(C)NC(=S)NC1c1ccc(C)cc1 (stereo unspecified)	-2.1
CCOc1ccc(N(CC(=O)Nc2ccc(Cl)cc2C)S(C)(=O)=O)cc1	3.9
COc1ccc(Cl)cc1C(=O)NC(c1ccccc1)c1ccccc1	-8.4
COC(=O)c1ccc(NC(=O)C2COc3ccccc3O2)cc1 (stereo unspecified)	-10.2

SMILES	displacement [%]
O=C(Cc1ccccc1)N1N=C(c2ccc(Cl)cc2)CC1(O)C(F)(F)F (stereo unspecified)	3.5
COc1cc([N+](=O)[O-])ccc1-c1ccc(/C=C2\C(=O)N(c3ccc(S(N)(=O)=O)cc3)N=C2C)o1	5.3
CCN(CC)CCSc1nc(O)c(CC(C)C)c(=O)[nH]1	5.5
O=[N+]([O-])c1ccc2c(c1)Cc1cc(N=Cc3ccccc3F)ccc1-2	-0.7
Cc1cc(C)cc(NC(=O)COc2ccc3ccccc3c2)c1	-21.3
COC(=O)C1=C(C)N(C)C(C)=C(C(=O)OC)C1c1ccc(Cl)cc1Cl	-3.4
O=C1C(=O)N(Cc2ccc3c(c2)OCO3)c2ccccc21	4
Cc1ccc(NC(=O)Cn2cnc3c2c(=O)n(C)c(=O)n3C)nc1	9.5
COC(=O)c1cc(C(=O)OC)cc(S(=O)(=O)O)c1	2.1
CCc1c(C)nc2ccc(C(=O)O)cc2c1Cl	-12
COc1cccc(OCCCN2CCOCC2)c1	7.9
CCOc1ccc(/C=C2/SC(=O)N(CNc3ccc(Br)cc3)C2=O)cc1	11.7
CCOc1ccc(/C=C2\SC(=S)N(c3ccc(OC)cc3)C2=O)cc1OC	114
CCOC(=O)C1=C(C)N=c2s/c(=C\C=C\c3ccccc3)c(=O)n2C1c1cccc([N+](=O)[O-])c1 (stereo unspecified)	2.6
C=CCNC(=O)CN(c1ccc(OC)cc1)S(=O)(=O)c1ccccc1	15.4
COc1ccc(/C=C2\C(=O)N(c3ccc(F)cc3)N=C2C)cc1	-10.4
O=C1CCC(C(=O)OCC(=O)c2ccc([N+](=O)[O-])cc2)N1 (stereo unspecified)	15.8
Cc1cc(C)c2c(c1)=C(c1sc(N)nc1O)C(=O)N=2	-0.5
CC(C)C1=NN2C(=N)/C(=C/c3cc(Cl)ccc3OCc3ccccc3)C(=O)N=C2S1	-7.4
